# Data as given in PubChem BioAssay AID1508642 (National Center for Advancing Translational Sciences (NCATS), 2021).
# About 200 (0.47%) of roughly 43,000 compounds were called active. Another 12% or so got no clear call; they are omitted. Calls follow the shape of the dose curve; as a rule, active = well fitted cell-killing curve with a large enough effect; inconclusive = small, poorly fitted or top-dose-only effect, or effect the other way; inactive = flat fitted curve, though single readings scatter. The list shows a part of the results.
# Assay: Cell viability qHTS assay in S16 Pmp22-F2sN cells; also: nearly all actives have a fitted effect of over 65% in size
# Conditions: S16 Pmp22-F2sN Schwann cells viability, CellTiter-Glo, 24 h; series mostly up to 57.5 µM; activity change, negative = cytotoxicity: at the top concentration
# Outline: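 Used to flag compounds lowering reporter output through toxicity, this quantitative HTS measures ATP-based CellTiter-Glo luminescence in S16 Pmp22-F2sN Schwann cells after 24 h compound exposure at 37C.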
# % is scaled to controls: 0 for no effect and ±100 for the full control effect.
row,Compound,"activity change, negative = cytotoxicity"
1,O=C1c2[nH]nc(-c3ccccc3O)c2C(c2cccc(OCc3ccccc3)c2)N1CCO (stereo unspecified),inactive: 0.136%
2,CCN(CC)C(=O)Cn1c(=O)n(-c2ccc(Cl)cc2)c(=O)c2c3c(sc21)CCC3,inactive: 11.9%
3,Cc1cn2c(=O)cc(COC(=O)c3cccc(NC(=O)c4ccccc4C)c3)nc2s1,inactive: -1.72%
4,COc1ccc(-n2nc(C)c3c(C(F)(F)F)cc(-c4cccnc4)nc32)cc1,inactive: -4.15%
5,COc1ccc(C(=O)COC(=O)C(Cc2c[nH]c3ccccc23)NC(=O)c2ccc(C(C)(C)C)cc2)cc1 (stereo unspecified),inactive: 3.24%
6,COCCCNC(=O)C1CCN(c2nc3ccc(C)cc3[nH]2)CC1,inactive: 12.5%
7,COc1cccc(N2CCN(C(=O)CCS(=O)(=O)c3ccc4c(c3)oc(=O)n4C)CC2)c1,inactive: -20.4%
8,Cc1ccc(Cl)cc1Nc1nn2c(=O)c3ccc(C(=O)N4CCCC(C)C4)cc3nc2s1 (stereo unspecified),inactive: 9.24%
9,CC(C)c1cnc2c(c1SCC(=O)Nc1cccc(F)c1)c(=O)n(C)c(=O)n2C,inactive: -10.1%
10,CCn1cc2nc(SCc3cccc(Cl)c3)n(Cc3ccc(C)cc3)c(=O)c2n1,inactive: -3.67%
11,COc1ccc(CCNS(=O)(=O)c2cc(-c3cc(C)no3)ccc2C)cc1OC,inactive: -2.33%
12,O=C(Nc1cccc(F)c1)C1CCN(S(=O)(=O)c2cccc3nsnc23)CC1,inactive: 8.41%
13,CCc1ccc(CN2CCc3nc(N4CCN(CC)CC4)ncc3C2)cc1,inactive: 0.0154%
14,CN(C)c1ccc(CNC(=O)CCn2cccn2)cc1,inactive: 1.03%
15,CCN(C(=O)CSc1nc(-c2ccc(C(C)C)cc2)no1)c1cccc(C)c1,inactive: -11.5%
16,COc1ccc(CNC(=O)CCCn2nc(C)c3c(C)n(-c4ccccc4)nc3c2=O)cc1,inactive: 5.13%
17,COc1ccc(OC)c(NS(=O)(=O)c2ccc(-c3cc(C)no3)s2)c1,inactive: 2.57%
18,Cc1cccc(C(=O)Nc2nnc(S(=O)(=O)N(C)c3ccccc3C)s2)c1,inactive: -3.97%
19,Cc1ccc(-n2c(-c3ccco3)nc3c(cnn3-c3ccccc3Cl)c2=O)cc1,inactive: 8.49%
20,CSc1ccc(C2c3c(oc4cc(C)cc(C)c4c3=O)C(=O)N2Cc2ccco2)cc1 (stereo unspecified),inactive: -1.22%
21,Cc1ccc(CCNC(=O)c2ccc3c(c2)N(Cc2cccc(Cl)c2)C(=O)c2ccccc2S3(=O)=O)cc1,inactive: -14.4%

row,Compound,"activity change, negative = cytotoxicity"
1,Cc1cc(C)cc(OC(C)C(=O)Nc2c(C(=O)c3ccccc3)oc3ccccc23)c1 (stereo unspecified),inactive: 10.7%
2,c1ccc(CSc2nc3ncccc3[nH]2)cc1,inactive: 6.47%
3,CCOc1ccc(CN(C(=O)c2cc(=O)c3cc(C)cc(C)c3o2)C2CCS(=O)(=O)C2)cc1 (stereo unspecified),inactive: 5.26%
4,COc1cc(NC(=O)CCc2c(C)nc3cc(-c4ccccc4)nn3c2C)cc(OC)c1OC,inactive: 10.1%
5,Cc1ccc2c(c1)c(=O)c(C(=O)c1ccc3c(c1)OCO3)cn2Cc1ccc(Cl)cc1,inactive: -3.94%
6,c1coc(-c2nc3n(n2)C2(CCCCC2)[C@@H]2CCCC[C@@H]2N3)c1,inactive: 1.86%
7,CN(C(=O)CSc1nnc(-c2ccccc2F)o1)C1CCCCC1,inactive: 0.511%
8,Cc1oc2ncnc(N3CCCCC3)c2c1C(=O)N1CCN(c2cccc(Cl)c2)CC1,inactive: 1.2%
9,CCCN1C(=O)C2(c3ccccc31)c1c(oc3ccc(F)cc3c1=O)C(=O)N2CCCOC(C)C (stereo unspecified),inactive: -0.371%
10,Cc1ccc(NC(=O)C2CCCN(S(=O)(=O)c3cccc4cccnc34)C2)cc1 (stereo unspecified),inactive: -17.5%
11,Cc1ccc(Cl)cc1NC(=O)c1oc2ccc(S(=O)(=O)N3CCCCC3)cc2c1C,inactive: -0.96%
12,CCc1nonc1NC(=O)c1oc2ccc(Br)cc2c1C,inactive: 11.7%
13,CCc1ccc(-n2c(=O)c3c4c(sc3n(CC(=O)N3CCC(C)CC3)c2=O)CCC4)cc1,inactive: -1.93%
14,CC(=O)CSc1nnc2cc(C)c3cc(C)cc(C)c3n12,inactive: 8.55%
15,Cc1nn(C(C)C(=O)N2CCN(c3ccc(Cl)cc3)CC2)c(=O)c2cc3occc3n12 (stereo unspecified),inactive: -16.7%
16,Cc1ccc(S(=O)(=O)c2cn(Cc3cccc(C)c3)c3cc4c(cc3c2=O)OCO4)cc1,inactive: -12.7%
17,Cc1ccc(Cl)cc1NC(=O)c1oc2ccc(S(=O)(=O)N(C)C3CCCCC3)cc2c1C,inactive: 0.767%
18,CCN(Cc1ccccc1)S(=O)(=O)c1ccc(-c2coc(C)n2)cc1,inactive: 0.357%
19,Cc1cc(-n2c(C)nc3ccccc3c2=O)ccc1NC(=O)C(F)(F)F,inactive: 18.4%
20,O=C(Cn1ncc2c3ccccc3n(Cc3ccc(F)cc3)c2c1=O)NCc1cccs1,inactive: -1.63%
21,CC(CNC(=O)c1ccc2nc(Cc3ccccc3)oc2c1)c1ccccc1 (stereo unspecified),inactive: -3.06%

row,Compound,"activity change, negative = cytotoxicity"
1,COc1ccc(NC(=O)CCCn2nc(C)c3sc4ccccc4c3c2=O)cc1,inactive: 8.33%
2,COc1ccc(S(=O)(=O)NCCSc2nnnn2-c2ccccc2)cc1,inactive: -13.8%
3,Cc1cc(C(=O)Nc2ccc(-n3c(C)nc4ccccc4c3=O)cc2)ccc1[N+](=O)[O-],inactive: 15.4%
4,CC1CCCN(S(=O)(=O)c2ccc3c(c2)CCN3C(=O)CCC(=O)O)C1 (stereo unspecified),inactive: 3.96%
5,CCC(C)Nc1ncnc2c1cnn2-c1ccc(F)cc1 (stereo unspecified),inactive: -4.48%
6,O=C(CCC1N=C2c3ccccc3N=C(SCc3ccc(Cl)cc3)N2C1=O)N1CCN(c2ccccc2)CC1 (stereo unspecified),inactive: 1.14%
7,COc1ccc(N2CCN(CCCNC(=O)Nc3ccccc3)CC2)cc1,inactive: -7.16%
8,COC(=O)c1sccc1S(=O)(=O)N(CC(=O)NCc1ccc(C)cc1)c1ccc(C)cc1,inactive: 16%
9,COc1ccc(-n2c(SCC(=O)NCc3ccc(C)cc3)nc3n[nH]c(C)c3c2=N)cc1,inactive: 13.6%
10,Fc1ccc(-c2nc(Nc3cccc(C(F)(F)F)c3)nc3c2COc2ccccc2-3)cc1,inactive: 3.25%
11,Cc1ccc(CSc2nnc3[nH]c(=O)cc(-c4ccccc4)n23)cc1,inactive: -0.24%
12,O=C(CSc1nnc(-c2ccc(F)cc2)o1)N1CCCc2ccccc21,inactive: -0.901%
13,CCn1cc(C(=O)NCc2ccc(Cl)cc2)c(=O)c2cc(S(=O)(=O)N(C)C3CCCCC3)ccc21,inactive: 4.82%
14,Cc1ccc(N(CC(=O)Nc2ccc(Cl)cc2)S(=O)(=O)c2cccc3nonc23)cc1,inactive: -26.1%
15,CCOc1cc(CNC(=O)CN2CCSc3ccccc32)cc(OCC)c1OCC,inactive: 7.8%
16,COc1cccc(NC(=O)Cn2c(=O)n(Cc3ccccc3)c(=O)c3ccccc32)c1,inactive: 3.65%
17,CN1C(C(=O)Nc2ccc(OC(F)(F)F)cc2)=CC(c2cccs2)=NS1(=O)=O,inactive: -15%
18,CCSc1nc2n(n1)C(c1ccc(C(=O)O)cc1)C(C(=O)Nc1ccccc1C)=C(C)N2 (stereo unspecified),inactive: -3.14%
19,COc1ccc(NC(=O)c2oc3ccccc3c2NC(=O)COc2ccc(C(C)C)cc2)c(OC)c1,inactive: 17.3%
